# Results as given in the supplement of paper PMC8728848.
# The list shows a part of the results.
# B1: Epa3to1 (Candida glabrata) (protein)
# chain: MGSSHHHHHHSSGLVPRGSHMKRELSSQNPFGYPIGCSPQDVAIIPGLTMELYSYPIVSGTPPNCYDASYVDPEYPRTGYLKRKMVGKSTGVTGNLNYKYSVEKACMVKYGNLPAGYNYNEPLTVSNFTMILYGYFKAQTTGLHTFFVNADDLLYINFGAGNAFDCCKREDSKTKLGEYVAYDIWHVDSSKNKVSLFLEKDLYYPIRMFFNNREYDSSLDLSFSVNGATDQISDFSGYLYSVPDQPDTCPAHIGYDTTCR
# Key:
# Experiment in all cases: glycan array binding signal (z-score within array); higher = stronger binding
# Settings in all cases: glycan notation: IUPAC condensed, linker removed
# Fuc(a1-2)Gal = molecular target: Fuc(a1-2)Gal
# Procedure, shortened: (§1)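 Arrays were curated from the Consortium for Functional Glycomics database, 3228 in total, and kept only where the protein sequence was available. Binding is expressed as a within-array Z-score. This score was averaged across arrays of the same protein sequence at different concentrations or buffers and across linkers, and negative values can be read as non-binding.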
# Fuc(a1-2)Gal(b1-3)GalNAc = molecular target: Fuc(a1-2)Gal(b1-3)GalNAc
# Procedure, shortened: as §1
# [1] = molecular target: Fuc(a1-2)Gal(b1-3)GalNAc(a1-3)[Fuc(a1-2)]Gal(b1-4)Glc
# Procedure, shortened: as §1
# [2] = molecular target: Fuc(a1-2)Gal(b1-3)GalNAc(a1-3)[Fuc(a1-2)]Gal(b1-4)GlcNAc
# Procedure, shortened: as §1
# [3] = molecular target: Fuc(a1-2)Gal(b1-3)GalNAc(b1-3)Gal
# Procedure, shortened: as §1
# [4] = molecular target: Fuc(a1-2)Gal(b1-3)GalNAc(b1-3)Gal(a1-4)Gal(b1-4)Glc
# Procedure, shortened: as §1
# [5] = molecular target: Fuc(a1-2)Gal(b1-3)GalNAc(b1-4)[Neu5Ac(a2-3)]Gal(b1-4)Glc
# Procedure, shortened: as §1
# Fuc(a1-2)Gal(b1-3)GlcNAc = molecular target: Fuc(a1-2)Gal(b1-3)GlcNAc
# Procedure, shortened: as §1
# [6] = molecular target: Fuc(a1-2)Gal(b1-3)GlcNAc(b1-2)Man(a1-3)[Fuc(a1-2)Gal(b1-3)GlcNAc(b1-2)Man(a1-6)]Man(b1-4)GlcNAc(b1-4)GlcNAc
# Procedure, shortened: as §1
# [7] = molecular target: Fuc(a1-2)Gal(b1-3)GlcNAc(b1-2)Man(a1-3)[Fuc(a1-2)Gal(b1-3)GlcNAc(b1-2)Man(a1-6)]Man(b1-4)GlcNAc(b1-4)[Fuc(a1-6)]GlcNAc
# Procedure, shortened: as §1
# [8] = molecular target: Fuc(a1-2)Gal(b1-3)GlcNAc(b1-3)Gal(b1-4)Glc
# Procedure, shortened: as §1
# [9] = molecular target: Fuc(a1-2)Gal(b1-3)GlcNAc(b1-3)GalNAc
# Procedure, shortened: as §1
# [10] = molecular target: Fuc(a1-2)Gal(b1-3)GlcNAc(b1-3)[Fuc(a1-2)Gal(b1-3)GlcNAc(b1-6)]GalNAc
# Procedure, shortened: as §1
# [11] = molecular target: Fuc(a1-2)Gal(b1-3)GlcNAc(b1-3)[Gal(b1-4)GlcNAc(b1-6)]Gal(b1-4)Glc
# Procedure, shortened: as §1
# [12] = molecular target: Fuc(a1-2)Gal(b1-3)GlcNAc(b1-3)[Neu5Ac(a2-6)Gal(b1-4)GlcNAc(b1-6)]Gal(b1-4)Glc
# Procedure, shortened: as §1
# [13] = molecular target: Fuc(a1-2)Gal(b1-3)GlcNAc6S
# Procedure, shortened: as §1
# [14] = molecular target: Fuc(a1-2)Gal(b1-3)[Fuc(a1-4)]GlcNAc
# Procedure, shortened: as §1
# [15] = molecular target: Fuc(a1-2)Gal(b1-3)[Fuc(a1-4)]GlcNAc(b1-2)Man(a1-3)[Fuc(a1-2)Gal(b1-3)[Fuc(a1-4)]GlcNAc(b1-2)Man(a1-3)]Man(b1-4)GlcNAc(b1-4)GlcNAc
# Procedure, shortened: as §1
# [16] = molecular target: Fuc(a1-2)Gal(b1-3)[Fuc(a1-4)]GlcNAc(b1-2)Man(a1-3)[Fuc(a1-2)Gal(b1-3)[Fuc(a1-4)]GlcNAc(b1-2)Man(a1-6)]Man(b1-4)GlcNAc(b1-4)[Fuc(a1-6)]GlcNAc(b1-4)[Fuc(a1-6)]GlcNAc
# Procedure, shortened: as §1
# [17] = molecular target: Fuc(a1-2)Gal(b1-3)[Fuc(a1-4)]GlcNAc(b1-3)[Fuc(a1-3)[Gal(b1-4)]GlcNAc(b1-6)]Gal(b1-4)Glc
# Procedure, shortened: as §1
# [18] = molecular target: Fuc(a1-2)Gal(b1-3)[Fuc(a1-4)]GlcNAc(b1-3)[Gal(b1-4)GlcNAc(b1-6)]Gal(b1-4)Glc
# Procedure, shortened: as §1
# Fuc(a1-2)Gal(b1-4)Glc = molecular target: Fuc(a1-2)Gal(b1-4)Glc
# Procedure, shortened: as §1
# Fuc(a1-2)Gal(b1-4)Glc6S = molecular target: Fuc(a1-2)Gal(b1-4)Glc6S
# Procedure, shortened: as §1
# Fuc(a1-2)Gal(b1-4)GlcNAc = molecular target: Fuc(a1-2)Gal(b1-4)GlcNAc
# Procedure, shortened: as §1
# [19] = molecular target: Fuc(a1-2)Gal(b1-4)GlcNAc(b1-2)Man
# Procedure, shortened: as §1
# [20] = molecular target: Fuc(a1-2)Gal(b1-4)GlcNAc(b1-2)Man(a1-3)[Fuc(a1-2)Gal(b1-4)GlcNAc(b1-2)Man(a1-6)]Man(b1-4)GlcNAc(b1-4)GlcNAc
# Procedure, shortened: as §1
# [21] = molecular target: Fuc(a1-2)Gal(b1-4)GlcNAc(b1-2)Man(a1-3)[Fuc(a1-2)Gal(b1-4)GlcNAc(b1-2)Man(a1-6)]Man(b1-4)GlcNAc(b1-4)[Fuc(a1-6)]GlcNAc
# Procedure, shortened: as §1
# [22] = molecular target: Fuc(a1-2)Gal(b1-4)GlcNAc(b1-2)[Fuc(a1-2)Gal(b1-4)GlcNAc(b1-4)]Man(a1-3)[Fuc(a1-2)Gal(b1-4)GlcNAc(b1-2)Man(a1-6)]Man(b1-4)GlcNAc(b1-4)GlcNAc
# Procedure, shortened: as §1
# [23] = molecular target: Fuc(a1-2)Gal(b1-4)GlcNAc(b1-3)Gal(b1-4)GlcNAc
# Procedure, shortened: as §1
# [24] = molecular target: Fuc(a1-2)Gal(b1-4)GlcNAc(b1-3)Gal(b1-4)GlcNAc(b1-2)Man(a1-3)[Fuc(a1-2)Gal(b1-4)GlcNAc(b1-3)Gal(b1-4)GlcNAc(b1-2)Man(a1-6)]Man(b1-4)GlcNAc(b1-4)GlcNAc
# Procedure, shortened: as §1
# [25] = molecular target: Fuc(a1-2)Gal(b1-4)GlcNAc(b1-3)Gal(b1-4)GlcNAc(b1-3)Gal(b1-4)GlcNAc
# Procedure, shortened: as §1
# [26] = molecular target: Fuc(a1-2)Gal(b1-4)GlcNAc(b1-3)GalNAc
# Procedure, shortened: as §1
# [27] = molecular target: Fuc(a1-2)Gal(b1-4)GlcNAc(b1-3)[Fuc(a1-2)Gal(b1-4)GlcNAc(b1-6)]GalNAc
# Procedure, shortened: as §1
# [28] = molecular target: Fuc(a1-2)Gal(b1-4)GlcNAc(b1-3)[Fuc(a1-3)[Gal(b1-4)]GlcNAc(b1-6)]Gal(b1-4)Glc
# Procedure, shortened: as §1
# [29] = molecular target: Fuc(a1-2)Gal(b1-4)GlcNAc(b1-6)GalNAc
# Procedure, shortened: as §1
# [30] = molecular target: Fuc(a1-2)Gal(b1-4)GlcNAc6S
# Procedure, shortened: as §1
# [31] = molecular target: Fuc(a1-2)Gal(b1-4)[Fuc(a1-3)]GlcNAc
# Procedure, shortened: as §1
binder,measurement,setting,value
B1,glycan array binding signal (z-score),Fuc(a1-2)Gal,-0.763
same,glycan array binding signal (z-score),Fuc(a1-2)Gal(b1-3)GalNAc,-0.416
same,glycan array binding signal (z-score),[1],-0.293
same,glycan array binding signal (z-score),[2],-0.516
same,glycan array binding signal (z-score),[3],1.55
same,glycan array binding signal (z-score),[4],-0.161
same,glycan array binding signal (z-score),[5],-0.18
same,glycan array binding signal (z-score),Fuc(a1-2)Gal(b1-3)GlcNAc,-0.787
same,glycan array binding signal (z-score),[6],0.148
same,glycan array binding signal (z-score),[7],0.146
same,glycan array binding signal (z-score),[8],-0.231
same,glycan array binding signal (z-score),[9],-0.396
same,glycan array binding signal (z-score),[10],0.23
same,glycan array binding signal (z-score),[11],0.221
same,glycan array binding signal (z-score),[12],-0.43
same,glycan array binding signal (z-score),[13],-0.381
same,glycan array binding signal (z-score),[14],-0.064
same,glycan array binding signal (z-score),[15],-0.409
same,glycan array binding signal (z-score),[16],-0.07
same,glycan array binding signal (z-score),[17],-1.59
same,glycan array binding signal (z-score),[18],-0.421
same,glycan array binding signal (z-score),Fuc(a1-2)Gal(b1-4)Glc,-0.39
same,glycan array binding signal (z-score),Fuc(a1-2)Gal(b1-4)Glc6S,-0.843
same,glycan array binding signal (z-score),Fuc(a1-2)Gal(b1-4)GlcNAc,-0.514
same,glycan array binding signal (z-score),[19],0.029
same,glycan array binding signal (z-score),[20],-0.477
same,glycan array binding signal (z-score),[21],0.022
same,glycan array binding signal (z-score),[22],-0.573
same,glycan array binding signal (z-score),[23],-0.394
same,glycan array binding signal (z-score),[24],-0.372
same,glycan array binding signal (z-score),[25],-0.479
same,glycan array binding signal (z-score),[26],-0.272
same,glycan array binding signal (z-score),[27],0.273
same,glycan array binding signal (z-score),[28],0.165
same,glycan array binding signal (z-score),[29],0.045
same,glycan array binding signal (z-score),[30],-0.404
same,glycan array binding signal (z-score),[31],-0.287
